# Experimental data reported in the supplement of paper PMC8728848.
# The list shows a part of the results.
# B1: ECL (Erythrina cristagalli), Q6YD91 (protein)
# chain: VETISFSFSEFEPGNNDLTLQGAAIITQSGVLQLTKINQNGMPAWDSTGRTLYTKPVHIWDMTTGTVASFETRFSFSIEQPYTRPLPADGLVFFMGPTKSKPAQGYGYLGVFNNSKQDNSYQTLAVEFDTFSNPWDPPQVPHIGIDVNSIRSIKTQPFQLDNGQVANVVIKYDASSKILLAVLVYPSSGAIYTIAEIVDVKQVLPEWVDVGLSGATGAQRDAAETHDVYSWSFHASLPETND
# What was measured:
# Experiment in all cases: glycan array binding signal (z-score within array); higher = stronger binding
# Conditions in all cases: glycan notation: IUPAC condensed, linker removed
# [1] = target: Fuc(a1-2)Gal(b1-4)GlcNAc(b1-3)Gal(b1-4)GlcNAc(b1-2)Man(a1-3)[Fuc(a1-2)Gal(b1-4)GlcNAc(b1-3)Gal(b1-4)GlcNAc(b1-2)Man(a1-6)]Man(b1-4)GlcNAc(b1-4)GlcNAc
# In short: (§1)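 Glycan array binding is given as a within-array Z-score, which can be read as non-binding when negative. The arrays, 3228 of them, came from the Consortium for Functional Glycomics database and were retained only where the protein sequence was available. Z-scores were averaged across arrays of the same protein sequence at different concentrations or buffers and across linkers.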
# [2] = target: Fuc(a1-2)Gal(b1-4)GlcNAc(b1-3)Gal(b1-4)GlcNAc(b1-3)Gal(b1-4)GlcNAc
# In short: as §1
# [3] = target: Fuc(a1-2)Gal(b1-4)GlcNAc(b1-3)GalNAc
# In short: as §1
# [4] = target: Fuc(a1-2)Gal(b1-4)GlcNAc(b1-3)[Fuc(a1-2)Gal(b1-4)GlcNAc(b1-6)]GalNAc
# In short: as §1
# [5] = target: Fuc(a1-2)Gal(b1-4)GlcNAc(b1-3)[Fuc(a1-3)[Gal(b1-4)]GlcNAc(b1-6)]Gal(b1-4)Glc
# In short: as §1
# [6] = target: Fuc(a1-2)Gal(b1-4)GlcNAc(b1-6)GalNAc
# In short: as §1
# [7] = target: Fuc(a1-2)Gal(b1-4)GlcNAc6S
# In short: as §1
# [8] = target: Fuc(a1-2)Gal(b1-4)[Fuc(a1-3)]GlcNAc
# In short: as §1
# [9] = target: Fuc(a1-2)Gal(b1-4)[Fuc(a1-3)]GlcNAc(b1-2)Man(a1-3)[Fuc(a1-2)Gal(b1-4)[Fuc(a1-3)]GlcNAc(b1-2)Man(a1-6)]Man(b1-4)GlcNAc(b1-4)[Fuc(a1-6)]GlcNAc
# In short: as §1
# [10] = target: Fuc(a1-2)Gal(b1-4)[Fuc(a1-3)]GlcNAc(b1-2)[Fuc(a1-2)Gal(b1-4)[Fuc(a1-3)]GlcNAc(b1-4)]Man(a1-3)[Fuc(a1-2)Gal(b1-4)[Fuc(a1-3)]GlcNAc(b1-2)Man(a1-6)]Man(b1-4)GlcNAc(b1-4)GlcNAc
# In short: as §1
# [11] = target: Fuc(a1-2)Gal(b1-4)[Fuc(a1-3)]GlcNAc(b1-3)Gal(b1-4)[Fuc(a1-3)]GlcNAc
# In short: as §1
# [12] = target: Fuc(a1-2)Gal(b1-4)[Fuc(a1-3)]GlcNAc(b1-3)Gal(b1-4)[Fuc(a1-3)]GlcNAc(b1-3)Gal(b1-4)[Fuc(a1-3)]GlcNAc
# In short: as §1
# [13] = target: Fuc(a1-2)Gal(b1-4)[Fuc(a1-3)]GlcNAc(b1-3)GalNAc
# In short: as §1
# [14] = target: Fuc(a1-2)Gal(b1-4)[Fuc(a1-3)]GlcNAc(b1-3)[Neu5Ac(a2-6)Gal(b1-4)GlcNAc(b1-6)]Gal(b1-4)Glc
# In short: as §1
# [15] = target: Fuc(a1-2)Gal3S(b1-4)GlcNAc
# In short: as §1
# [16] = target: Fuc(a1-2)Gal6S(b1-3)GlcNAc
# In short: as §1
# [17] = target: Fuc(a1-2)Gal6S(b1-3)GlcNAc6S
# In short: as §1
# Fuc(a1-2)Gal6S(b1-4)Glc = target: Fuc(a1-2)Gal6S(b1-4)Glc
# In short: as §1
# [18] = target: Fuc(a1-2)Gal6S(b1-4)Glc6S
# In short: as §1
# Fuc(a1-2)[Gal(a1-3)]Gal = target: Fuc(a1-2)[Gal(a1-3)]Gal
# In short: as §1
# [19] = target: Fuc(a1-2)[Gal(a1-3)]Gal(b1-3)GalNAc
# In short: as §1
# [20] = target: Fuc(a1-2)[Gal(a1-3)]Gal(b1-3)GalNAc(b1-3)Gal(a1-4)Gal(b1-4)Glc
# In short: as §1
# [21] = target: Fuc(a1-2)[Gal(a1-3)]Gal(b1-3)GlcNAc
# In short: as §1
# [22] = target: Fuc(a1-2)[Gal(a1-3)]Gal(b1-3)GlcNAc(b1-2)Man(a1-3)[Fuc(a1-2)[Gal(a1-3)]Gal(b1-3)GlcNAc(b1-2)Man(a1-6)]Man(b1-4)GlcNAc(b1-4)GlcNAc
# In short: as §1
# [23] = target: Fuc(a1-2)[Gal(a1-3)]Gal(b1-3)GlcNAc(b1-2)Man(a1-3)[Fuc(a1-2)[Gal(a1-3)]Gal(b1-3)GlcNAc(b1-2)Man(a1-6)]Man(b1-4)GlcNAc(b1-4)[Fuc(a1-6)]GlcNAc
# In short: as §1
# [24] = target: Fuc(a1-2)[Gal(a1-3)]Gal(b1-3)GlcNAc(b1-3)GalNAc
# In short: as §1
# [25] = target: Fuc(a1-2)[Gal(a1-3)]Gal(b1-3)GlcNAc(b1-6)GalNAc
# In short: as §1
# [26] = target: Fuc(a1-2)[Gal(a1-3)]Gal(b1-4)Glc
# In short: as §1
# [27] = target: Fuc(a1-2)[Gal(a1-3)]Gal(b1-4)GlcNAc
# In short: as §1
# [28] = target: Fuc(a1-2)[Gal(a1-3)]Gal(b1-4)GlcNAc(b1-2)Man
# In short: as §1
binder,measurement,setting,value
B1,glycan array binding signal (z-score),[1],2.39
same,glycan array binding signal (z-score),[2],0.506
same,glycan array binding signal (z-score),[3],-0.204
same,glycan array binding signal (z-score),[4],-0.127
same,glycan array binding signal (z-score),[5],0.053
same,glycan array binding signal (z-score),[6],-0.165
same,glycan array binding signal (z-score),[7],0.963
same,glycan array binding signal (z-score),[8],-0.145
same,glycan array binding signal (z-score),[9],-0.185
same,glycan array binding signal (z-score),[10],0.055
same,glycan array binding signal (z-score),[11],-0.186
same,glycan array binding signal (z-score),[12],-0.004
same,glycan array binding signal (z-score),[13],1.38
same,glycan array binding signal (z-score),[14],-0.29
same,glycan array binding signal (z-score),[15],-0.224
same,glycan array binding signal (z-score),[16],-0.436
same,glycan array binding signal (z-score),[17],-0.394
same,glycan array binding signal (z-score),Fuc(a1-2)Gal6S(b1-4)Glc,-0.054
same,glycan array binding signal (z-score),[18],-0.077
same,glycan array binding signal (z-score),Fuc(a1-2)[Gal(a1-3)]Gal,-0.143
same,glycan array binding signal (z-score),[19],-0.143
same,glycan array binding signal (z-score),[20],-0.247
same,glycan array binding signal (z-score),[21],-0.196
same,glycan array binding signal (z-score),[22],-0.173
same,glycan array binding signal (z-score),[23],-0.182
same,glycan array binding signal (z-score),[24],-0.393
same,glycan array binding signal (z-score),[25],-0.206
same,glycan array binding signal (z-score),[26],-0.141
same,glycan array binding signal (z-score),[27],-0.306
same,glycan array binding signal (z-score),[28],-0.158
